From ChEMBL document CHEMBL1201862, “PubChem BioAssay data set” (2004)
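Cultured in 96-well plates, cells were exposed to test compound for 48 hours across five concentrations. At the GI50, growth is halved.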 Active and inactive are the calls of the source. Cut-off read from the data, not from the text of the source: active = GI50 up to about 1.1 µM and inactive = higher. Numbered stars: 1 amine (or outer) side, 2 acyl side, 3 side chain; on linkers, the order of the positions; unused ones are H or OH. Bridge positions count the residues as written; N and C are the ends. Square brackets hold non-standard residues; d marks the D form. Peptide text beside a SMILES is read from it. I, II: the chains in the order shown. Actinocin(9to1) = Cc1c2oc3c(C)ccc(C(=O)[*:1])c3nc-2c(C(=O)[*:2])c(N)c1=O; NMeH = CN[CH](Cc1c[nH]cn1)C(=O)O; Sar = CNCC(=O)O

The compounds below were run on NCI-H322M (assay: DTP human tumour cell line panel, 48 h).
For `CC(C)c1ccccc1NC(=O)C(=O)Cc1nc2ccccc2s1`, the GI50 was inactive: > 100 µM.
With `CSc1nc(Br)nc2c1ncn2C1CC(Oc2ccc(C)cc2)C(COc2ccc(C)cc2)O1` (configuration not stated) the GI50 was inactive: > 100 µM.
For `O/N=C1/COC(C(F)(F)F)(C(F)(F)F)C1`, the GI50 was inactive: > 100 µM.
In the case of `Cc1c2oc3c(C)ccc(C(=O)NC4C(=O)NC(C(C)C)C(=O)N5CCCC5C(=O)N(C)CC(=O)N(C)C(Cc5cnc[nH]5)C(=O)OC4C)c3nc-2c(C(=O)NC2C(=O)NC(C(C)C)C(=O)N3CCCC3C(=O)N(C)CC(=O)N(C)C(Cc3cnc[nH]3)C(=O)OC2C)c(N)c1=O` (configuration not stated) (I: TVP[Sar][NMeH] / II: TVP[Sar][NMeH]; ester I:1-I:C, II:1-II:C; linker I:N-II:N via Actinocin(9to1); configuration not given here), the GI50 is reported as inactive: 67.3 µM.
With `COc1cc(S(=O)(=O)Nc2nc(-c3ccc(N4C(=O)CSC4c4cccs4)cc3)cs2)ccc1Cl` (configuration not stated) the GI50 was inactive: > 100 µM.
`CN(C)C(=S)N=C(Nc1ccccc1)Nc1ccccc1` was tested, and the GI50 was inactive: > 100 µM.
With `COc1cc2c(/C=C3/C(=O)Nc4ccc(Cl)cc43)c(Cl)[nH]c2cc1C` the GI50 was inactive: 2.36 µM.
With `O=C1C=C(O)c2nc(O)ccc2C1=O` the GI50 was inactive: > 100 µM.
For `CCCCCCCCCCCCCC(=O)OCC1OC(=O)CC1O` (configuration not stated), the GI50 was inactive: > 100 µM.
With `COc1ccc(OCC(=O)O)c2c1CCCC2=O` the GI50 was inactive: > 100 µM.
For `CN(CCC(=O)N1CC(CCl)c2ccc([N+](=O)[O-])cc21)CCC(=O)N1CC(CCl)c2ccc([N+](=O)[O-])cc21` (configuration not stated), the GI50 was inactive: 42.9 µM.
With `CN(C)c1ccc2c(SCC(=O)OCC(=O)[C@@]3(O)CC[C@H]4[C@@H]5CCC6=CC(=O)C=C[C@]6(C)[C@H]5C(=O)C[C@@]43C)c3ccc(N(C)C)cc3nc2c1` the GI50 was inactive: 19.9 µM.
`Cc1cc2c(cc1C)N1Cc3c(ccc(C)c3C)N(C2)C1.Cc1cc2c(cc1C)N1Cc3cc(C)c(C)cc3N(C2)C1` was tested, and the GI50 was inactive: > 100 µM.
`Cc1ccc([S+]([O-])/C=C(\NC(=O)OCc2ccccc2)C(F)(F)F)cc1` (configuration not stated) was tested, and the GI50 was inactive: 45.7 µM.
With `COc1ccc(-n2sc3ncc(-c4ccccc4)cc3c2=O)cc1` the GI50 was inactive: > 100 µM.
`C=Cc1cnc([N+](=O)[O-])n1C` was tested, and the GI50 was inactive: 28.1 µM.
With `CC(C)(C)OC(=O)NC(Cc1ccc(OC(C)(C)C)cc1)C(=O)N[C@H]1CCC[C@H]1C(=O)NC(Cc1ccccc1)C(=O)N1CCCC1C(N)=O` (some centres not stated) the GI50 was inactive: > 100 µM.
For `COc1cc(C2C(Cl)C(=O)N2NC(=O)c2ccccc2O)cc(OC)c1OC` (configuration not stated), the GI50 was inactive: 3.48 µM.
`N=C(N)N/N=C/c1nc2n(c1[N+](=O)[O-])CCS2` was tested, and the GI50 was inactive: 29.6 µM.
In the case of `N=C(N)NS(=O)(=O)c1ccc(NC(=O)c2cccc3c(Nc4ccc(S(=O)(=O)N=C(N)N)cc4)c4ccc(Cl)cc4nc23)cc1`, the GI50 is reported as inactive: > 100 µM.
In the case of `Cc1cc2nc3[nH]nc(N)c3nc2cc1C`, the GI50 is reported as inactive: > 100 µM.
`CC(C)NC(=O)O/N=C1\CCC2[C@@H]3CC=C4C[C@@H](OC(=O)NC(C)C)CC[C@]4(C)C3CC[C@]12C` (some centres not stated) was tested, and the GI50 was inactive: 1.69 µM.
For `COc1cc([C@@H]2c3cc4c(cc3[C@@H](Nc3ccc([N+](=O)[O-])cc3C(=O)c3ccccc3)[C@H]3COC(=O)[C@H]23)OCO4)cc(OC)c1OC`, the GI50 was active: 0.596 µM.
For `COc1ccc(CCCC(=O)O)c(C)c1`, the GI50 was inactive: > 100 µM.
With `Cn1c(S)nc(C(N)=O)c1N` the GI50 was inactive: > 100 µM.
`Cc1cc(C)c2c(O)cc(-c3ccc(F)cc3)nc2n1` was tested, and the GI50 was inactive: 65.8 µM.
For `COc1cccc2c1[C@H]1CO[C@H]3C4C[C@H](C(=O)O)C([C@@H](C2)N13)N4C` (some centres not stated), the GI50 was inactive: 5.7 µM.
In the case of `Cc1cc(N)ccc1C=O`, the GI50 is reported as inactive: > 100 µM.
For `CN(C)CCNc1ccc(NCCN(C)C)c2c1C(=O)c1ncsc1C2=O`, the GI50 was inactive: 13 µM.
For `CCOc1ccc(OCC(=O)O)c2c1CCCC2=O`, the GI50 was inactive: > 100 µM.
For `CC(=O)c1sc2[n+](c1C)C(=O)/C(=C\c1ccccc1Cl)S2`, the GI50 was inactive: 35.5 µM.
In the case of `O=C(OCc1ccccc1)c1ccccc1-c1c2ccc(=O)cc-2oc2cc(OCc3ccccc3)ccc12`, the GI50 is reported as inactive: 30.2 µM.
